# This is one part of the list.
# B1: XCL (Xerocomus chrysenteron) (protein)
# chain: MSYSITLRVYQTNRDRGYFSIVEKTVWHFANGGTWSEANGAHTLTQGGSGTSGVLRFLSTKGERITVAVGVHNYKRWCDVVTGLKPDETALVINPQYYNNGGRDYVREKQLAEYSVTSAIGTKVEVVYTVAEGNNLEANVIFS
# What was measured:
# Test in all cases: glycan array binding signal (z-score within array); higher = stronger binding
# Conditions in all cases: glycan notation: IUPAC condensed, linker removed
# [1] = target: Fuc(a1-2)Gal(b1-4)[Fuc(a1-3)]GlcNAc
# Method in brief: (§1)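 Arrays were curated from the Consortium for Functional Glycomics database, 3228 in total, and kept only where the protein sequence was available. Binding is expressed as a within-array Z-score. This score was averaged across arrays of the same protein sequence at different concentrations or buffers and across linkers, and negative values can be read as non-binding.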
# [2] = target: Fuc(a1-2)Gal(b1-4)[Fuc(a1-3)]GlcNAc(b1-2)Man(a1-3)[Fuc(a1-2)Gal(b1-4)[Fuc(a1-3)]GlcNAc(b1-2)Man(a1-6)]Man(b1-4)GlcNAc(b1-4)GlcNAc
# Method in brief: as §1
# [3] = target: Fuc(a1-2)Gal(b1-4)[Fuc(a1-3)]GlcNAc(b1-2)[Fuc(a1-2)Gal(b1-4)[Fuc(a1-3)]GlcNAc(b1-4)]Man(a1-3)[Fuc(a1-2)Gal(b1-4)[Fuc(a1-3)]GlcNAc(b1-2)Man(a1-6)]Man(b1-4)GlcNAc(b1-4)GlcNAc
# Method in brief: as §1
# [4] = target: Fuc(a1-2)Gal(b1-4)[Fuc(a1-3)]GlcNAc(b1-3)Gal(b1-4)[Fuc(a1-3)]GlcNAc
# Method in brief: as §1
# [5] = target: Fuc(a1-2)Gal(b1-4)[Fuc(a1-3)]GlcNAc(b1-3)Gal(b1-4)[Fuc(a1-3)]GlcNAc(b1-3)Gal(b1-4)[Fuc(a1-3)]GlcNAc
# Method in brief: as §1
# [6] = target: Fuc(a1-2)Gal(b1-4)[Fuc(a1-3)]GlcNAc(b1-3)GalNAc
# Method in brief: as §1
# [7] = target: Fuc(a1-2)Gal6S(b1-4)Glc
# Method in brief: as §1
# [8] = target: Fuc(a1-2)Gal6S(b1-4)Glc6S
# Method in brief: as §1
# [9] = target: Fuc(a1-2)Gal6S(b1-4)GlcNAc
# Method in brief: as §1
# [10] = target: Fuc(a1-2)[Gal(a1-3)]Gal
# Method in brief: as §1
# [11] = target: Fuc(a1-2)[Gal(a1-3)]Gal(b1-3)GalNAc
# Method in brief: as §1
# [12] = target: Fuc(a1-2)[Gal(a1-3)]Gal(b1-3)GlcNAc
# Method in brief: as §1
# [13] = target: Fuc(a1-2)[Gal(a1-3)]Gal(b1-3)GlcNAc(b1-2)Man(a1-3)[Fuc(a1-2)[Gal(a1-3)]Gal(b1-3)GlcNAc(b1-2)Man(a1-6)]Man(b1-4)GlcNAc(b1-4)GlcNAc
# Method in brief: as §1
# [14] = target: Fuc(a1-2)[Gal(a1-3)]Gal(b1-3)GlcNAc(b1-2)Man(a1-3)[Fuc(a1-2)[Gal(a1-3)]Gal(b1-3)GlcNAc(b1-2)Man(a1-6)]Man(b1-4)GlcNAc(b1-4)[Fuc(a1-6)]GlcNAc
# Method in brief: as §1
# [15] = target: Fuc(a1-2)[Gal(a1-3)]Gal(b1-3)GlcNAc(b1-3)GalNAc
# Method in brief: as §1
# [16] = target: Fuc(a1-2)[Gal(a1-3)]Gal(b1-4)Glc
# Method in brief: as §1
# [17] = target: Fuc(a1-2)[Gal(a1-3)]Gal(b1-4)GlcNAc
# Method in brief: as §1
# [18] = target: Fuc(a1-2)[Gal(a1-3)]Gal(b1-4)GlcNAc(b1-2)Man(a1-3)[Fuc(a1-2)[Gal(a1-3)]Gal(b1-4)GlcNAc(b1-2)Man(a1-6)]Man(b1-4)GlcNAc(b1-4)GlcNAc
# Method in brief: as §1
# [19] = target: Fuc(a1-2)[Gal(a1-3)]Gal(b1-4)GlcNAc(b1-2)Man(a1-3)[Fuc(a1-2)[Gal(a1-3)]Gal(b1-4)GlcNAc(b1-2)Man(a1-6)]Man(b1-4)GlcNAc(b1-4)[Fuc(a1-6)]GlcNAc
# Method in brief: as §1
# [20] = target: Fuc(a1-2)[Gal(a1-3)]Gal(b1-4)GlcNAc(b1-3)GalNAc
# Method in brief: as §1
# [21] = target: Fuc(a1-2)[Gal(a1-3)]Gal(b1-4)[Fuc(a1-3)]Glc
# Method in brief: as §1
# [22] = target: Fuc(a1-2)[Gal(a1-3)]Gal(b1-4)[Fuc(a1-3)]GlcNAc
# Method in brief: as §1
# [23] = target: Fuc(a1-2)[Gal(a1-3)]Gal(b1-4)[Fuc(a1-3)]GlcNAc(b1-3)GalNAc
# Method in brief: as §1
# [24] = target: Fuc(a1-2)[Gal(a1-4)]Gal(b1-4)GlcNAc
# Method in brief: as §1
# [25] = target: Fuc(a1-2)[GalNAc(a1-3)]Gal
# Method in brief: as §1
# [26] = target: Fuc(a1-2)[GalNAc(a1-3)]Gal(b1-3)GalNAc(a1-3)[Fuc(a1-2)]Gal(b1-4)GlcNAc
# Method in brief: as §1
# [27] = target: Fuc(a1-2)[GalNAc(a1-3)]Gal(b1-3)GlcNAc
# Method in brief: as §1
# [28] = target: Fuc(a1-2)[GalNAc(a1-3)]Gal(b1-3)GlcNAc(b1-2)Man(a1-3)[Fuc(a1-2)[GalNAc(a1-3)]Gal(b1-3)GlcNAc(b1-2)Man(a1-6)]Man(b1-4)GlcNAc(b1-4)GlcNAc
# Method in brief: as §1
# [29] = target: Fuc(a1-2)[GalNAc(a1-3)]Gal(b1-3)GlcNAc(b1-2)Man(a1-3)[Fuc(a1-2)[GalNAc(a1-3)]Gal(b1-3)GlcNAc(b1-2)Man(a1-6)]Man(b1-4)GlcNAc(b1-4)[Fuc(a1-6)]GlcNAc
# Method in brief: as §1
# [30] = target: Fuc(a1-2)[GalNAc(a1-3)]Gal(b1-3)GlcNAc(b1-3)GalNAc
# Method in brief: as §1
binder,measurement,setting,value
B1,glycan array binding signal (z-score),[1],-0.225
same,glycan array binding signal (z-score),[2],-0.25
same,glycan array binding signal (z-score),[3],-0.173
same,glycan array binding signal (z-score),[4],-0.293
same,glycan array binding signal (z-score),[5],-0.312
same,glycan array binding signal (z-score),[6],-0.23
same,glycan array binding signal (z-score),[7],-0.321
same,glycan array binding signal (z-score),[8],-0.159
same,glycan array binding signal (z-score),[9],-0.324
same,glycan array binding signal (z-score),[10],-0.323
same,glycan array binding signal (z-score),[11],-0.324
same,glycan array binding signal (z-score),[12],-0.296
same,glycan array binding signal (z-score),[13],-0.311
same,glycan array binding signal (z-score),[14],-0.31
same,glycan array binding signal (z-score),[15],-0.303
same,glycan array binding signal (z-score),[16],-0.324
same,glycan array binding signal (z-score),[17],-0.319
same,glycan array binding signal (z-score),[18],-0.316
same,glycan array binding signal (z-score),[19],-0.317
same,glycan array binding signal (z-score),[20],0.047
same,glycan array binding signal (z-score),[21],-0.32
same,glycan array binding signal (z-score),[22],-0.292
same,glycan array binding signal (z-score),[23],-0.296
same,glycan array binding signal (z-score),[24],-0.325
same,glycan array binding signal (z-score),[25],-0.237
same,glycan array binding signal (z-score),[26],0.356
same,glycan array binding signal (z-score),[27],-0.012
same,glycan array binding signal (z-score),[28],0.401
same,glycan array binding signal (z-score),[29],-0.222
same,glycan array binding signal (z-score),[30],-0.249
